Laboratory results: ChEMBL document CHEMBL1201862, “PubChem BioAssay data set” (2004)
Counter-ions that a name gives are not always drawn.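 Protocol summary: plate cells (96-well), add compound at 5 concentrations, incubate 48 h, interpolate endpoints linearly. Here, GI50 denotes the concentration required for 50% inhibition of growth.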 Calls of active or inactive are those of the source. Cut-off read from the data, not from the text of the source: active = GI50 up to about 1.1 µM and inactive = higher. Square brackets hold non-standard residues; d marks the D form. Peptide text beside a SMILES is read from it. * marks the point of attachment. Ac5c = NC1(C(=O)O)CCCC1; Cbz = O=C(OCc1ccccc1)*; Boc = CC(C)(C)OC(=O)*; tBu = CC(C)(C)*

tested on: NCI-H322M; experiment: inhibition of tumour cell growth, NCI panel, 48 h

SMILES | GI50
c1ccc(/C(=N\Nc2ccccn2)c2ccccn2)cc1 | active: 0.519 µM
CC12Oc3ccc4ccccc4c3C1c1c(ccc3ccccc13)O2 (configuration not stated) | inactive: > 100 µM
COC(COC(N)=O)C1=C(N2CC2)C(=O)C(C)=C(N2CC2)C1=O (configuration not stated) [CARBOQUONE] | active: 0.33 µM
CC(=O)Nc1ccc(S(=O)(=O)/N=C2\C=CC(=O)c3ccccc32)cc1 | inactive: 15.6 µM
CCCCCCCCCCCCCC1=C(O)C(=O)C(CC2=C(O)C(=O)C(CCCCCCCCCCCCC)=C(O)C2=O)=C(O)C1=O | inactive: > 100 µM
O=c1cc(NNc2ccc(F)cc2)[nH]c(=O)[nH]1 | inactive: 32.3 µM
CCOc1ccc2nc(NC(=O)C(=O)C3C(=O)C(CC4C(=O)c5ccccc5C4=O)C(=O)CC3(C)C)sc2c1 (configuration not stated) | inactive: > 100 µM
CCN(CC)CCNc1ccc(C)c2sc3ccccc3c(=O)c12 [LUCANTHONE HYDROCHLORIDE] | inactive: 2.79 µM
CCCC(=O)c1c(NOC2OC(COC(C)=O)C(OC(C)=O)C(OC(C)=O)C2OC(C)=O)nc(OC)n(C)c1=O (configuration not stated) | inactive: > 100 µM
COc1ccc(OC)c(C(=O)c2cccc(C(=O)c3cc(OC)ccc3OC)n2)c1 | inactive: > 100 µM
CCc1ccc2c(c1)N(CC(C)CN(C)C)c1ccccc1S2 (configuration not stated) [ETYMEMAZINE HYDROCHLORIDE] | inactive: 4.84 µM
CCC1C(C#N)=C(N)OC2=C1C(=O)CC(C)(C)C2 (configuration not stated) | inactive: > 100 µM
CCC(CCCN)Nc1cc(OC)cc2c(C)ccnc12 (configuration not stated) | inactive: 14.6 µM
O=C1CSc2nnc(CCCCCCCCc3nnc4n3NC(=O)CS4)n2N1 | inactive: > 100 µM
CC1CC2(OC2C)C(=O)OC2CCN(C)C/C=C(/COC(=O)C1(C)O)C2=O (configuration not stated) | inactive: > 100 µM
COc1cc(CCNC2=CC(=O)c3cccnc3C2=O)ccc1O | inactive: 1.79 µM

SMILES | GI50
CC(=O)Nc1ccc(C(=O)N[C@@H]2C(=O)N3[C@@H]2SC(C)(C)[C@@H]3C(=O)O)cn1 | inactive: > 100 µM
Cc1ccc2c(=O)cc(Cc3cccs3)[nH]c2n1 | inactive: > 100 µM
COc1ccc2c(c1)nc1n2C(N)=Nc2ccccc2S1 | inactive: 64 µM
Cl[Si]1(Cl)Oc2ccccc2O[Si](Cl)(Cl)Oc2ccccc2O1 | inactive: 16.1 µM
O=C(NNS(=O)(=O)c1ccc(Br)cc1)c1ccc(Cl)cc1NC(=O)C12CC3CC(CC(C3)C1)C2 | inactive: 17.5 µM
COC(=O)C1(NC(=O)C(Cc2ccccc2)NC(=O)C(NC(=O)C(CCCCNC(=O)OC(C)(C)C)NC(=O)C(Cc2c[nH]c3ccccc23)NC(=O)C(Cc2ccccc2)NC(=O)OCc2ccccc2)C(C)OC(C)(C)C)CCCC1 (configuration not stated) (Cbz-FWK(Boc)T(tBu)F[Ac5c]-OMe; configuration not given here) | inactive: > 100 µM
COC(=O)C1CN=CN1CCc1ccccc1 (configuration not stated) | inactive: > 100 µM
OCCN(CCO)c1nc(N2CCCCC2)c2nc(N(CCO)CCO)nc(N3CCCCC3)c2n1 [DIPYRIDAMOLE] | inactive: 40.1 µM
O=C(Cc1ccccc1)Oc1ccc2c(-c3ccccc3)c(C(=O)Nc3ccc(Cl)cc3)c(=O)oc2c1 | inactive: > 100 µM
CN(C)Cc1cc(C(=O)/C=C/c2c(Cl)cccc2Cl)cc(CN(C)C)c1O | inactive: 11.5 µM
CCN=C=NCCCN(C)C | inactive: > 100 µM
COC(O)C(=O)c1ccc2c(c1)CC1(C2)Cc2cc3c(cc2C1=O)CCC3 (configuration not stated) | inactive: 19.9 µM
NN=C(S)Nc1cccc(Cl)c1 | inactive: > 100 µM
CC(=O)c1nc2ccccc2n1CC(=O)c1ccc([N+](=O)[O-])cc1 | inactive: 28.2 µM
Cc1ccccc1-c1nc2c(N)nc(N)nc2nc1N | inactive: > 100 µM
CC(=O)Nc1ccc(C2[C@H]3C(=O)N(c4ccc(Cc5ccc(N6C(=O)[C@@H]7ON(c8ccccc8)C(c8ccc(NC(C)=O)cc8)[C@@H]7C6=O)cc5)cc4)C(=O)[C@H]3ON2c2ccccc2)cc1 (some centres not stated) | inactive: > 100 µM
